Article PMC12486440, “Design, synthesis, and in silico studies of new benzofuran–pyrazole hybrids as multi-kinase inhibitors with potential antiproliferative activity” (RSC Advances, 2025)

Columns and labels:
NCI-H322M [1] = conditions: single dose 10 μM; non-small lung carcinoma
NCI-H322M [2] = assay: cells; conditions: Homo sapiens

COc1ccc(C2=NN(C(C)=O)C(c3cn(-c4ccccc4)nc3-c3cc4ccccc4o3)C2)cc1 (stereo not shown) [4b, 1-(5-(3-(Benzofuran-2-yl)-1-phenyl-1H-pyrazol-4-yl)-3-(4-methoxyphenyl)-4,5-dihydropyrazol-1-yl)ethanone]
GI% (NCI-H322M [1]): 3.11%

3-(5-(Benzofuran-2-yl)-1-phenyl-1H-pyrazol-3-yl)-1-(4-methoxyphenyl)prop-2-en-1-one [2b]
GI% (NCI-H322M [1]): 2.02%

COc1ccc(C2=NNC(c3cn(-c4ccccc4)nc3-c3cc4ccccc4o3)C2)cc1OC (stereo not shown) [3c, 3-(Benzofuran-2-yl)-4-(3-(3,4-dimethoxyphenyl)-4,5-dihydro-1H-pyrazol-5-yl)-1-phenyl-1H-pyrazole]
GI% (NCI-H322M [1]): 41.54%

COc1ccc(C2=NN(C(C)=O)C(c3cn(-c4ccccc4)nc3-c3cc4ccccc4o3)C2)cc1OC (stereo not shown) [4c, 1-(5-(3-(Benzofuran-2-yl)-1-phenyl-1H-pyrazol-4-yl)-3-(3,4-dimethoxyphenyl)-4,5-dihydropyrazol-1-yl)ethanone]
GI% (NCI-H322M [1]): 2.32%

c1ccc(C2=NNC(c3cn(-c4ccccc4)nc3-c3cc4ccccc4o3)C2)cc1 (stereo not shown) [3a, 3-(Benzofuran-2-yl)-4-(3-phenyl-4,5-dihydro-1H-pyrazol-5-yl)-1-phenyl-1H-pyrazole]
GI% (NCI-H322M [1]): 1.85%

CC(=O)N1N=C(c2ccccc2)CC1c1cn(-c2ccccc2)nc1-c1cc2ccccc2o1 (stereo not shown) [4a, 1-(5-(3-(Benzofuran-2-yl)-1-phenyl-1H-pyrazol-4-yl)-3-phenyl-4,5-dihydropyrazol-1-yl)ethanone]
GI% (NCI-H322M [1]): 2.33%

COc1ccc(C2=NNC(c3cn(-c4ccccc4)nc3-c3cc4ccccc4o3)C2)cc1 (stereo not shown) [3b, 3-(Benzofuran-2-yl)-4-(3-(4-methoxyphenyl)-4,5-dihydro-1H-pyrazol-5-yl)-1-phenyl-1H-pyrazole]
GI% (NCI-H322M [1]): 2.93%

CC(=O)N1N=C(c2nc3ccccc3[nH]2)CC1c1cn(-c2ccccc2)nc1-c1cc2ccccc2o1 (stereo not shown) [4d, 1-(5-(3-(Benzofuran-2-yl)-1-phenyl-1H-pyrazol-4-yl)-3-(1H-benzo[d]imidazol-2-yl)-4,5-dihydropyrazol-1-yl)ethanone]
GI% (NCI-H322M [1]): 2.19%

c1ccc(-n2cc(C3CC(c4nc5ccccc5[nH]4)=NN3)c(-c3cc4ccccc4o3)n2)cc1 (stereo not shown) [3d, 3-(Benzofuran-2-yl)-4-(3-(1H-benzo[d]imidazol-2-yl)-4,5-dihydro-1H-pyrazol-5-yl)-1-phenyl-1H-pyrazole]
GI% (NCI-H322M [1]): 85.31%
GI50 (NCI-H322M [2]): 3.77 µM
